Laboratory results as given in paper PMC4336329 (PLoS ONE, 2015).
The whole screen tested about 310,000 compounds, of which about 2,200 (0.71%) showed an effect of 50% or more. Effects have a minus sign here. The list shows a part of the results.

Biological target: human ether-à-go-go-related gene (hERG) potassium channel (human, UniProt Q12809)
Experiment: primary screen, population patch clamp on CHO cells stably expressing hERG

Chain of human ether-à-go-go-related gene (hERG) potassium channel (Q12809 whole entry, looked up): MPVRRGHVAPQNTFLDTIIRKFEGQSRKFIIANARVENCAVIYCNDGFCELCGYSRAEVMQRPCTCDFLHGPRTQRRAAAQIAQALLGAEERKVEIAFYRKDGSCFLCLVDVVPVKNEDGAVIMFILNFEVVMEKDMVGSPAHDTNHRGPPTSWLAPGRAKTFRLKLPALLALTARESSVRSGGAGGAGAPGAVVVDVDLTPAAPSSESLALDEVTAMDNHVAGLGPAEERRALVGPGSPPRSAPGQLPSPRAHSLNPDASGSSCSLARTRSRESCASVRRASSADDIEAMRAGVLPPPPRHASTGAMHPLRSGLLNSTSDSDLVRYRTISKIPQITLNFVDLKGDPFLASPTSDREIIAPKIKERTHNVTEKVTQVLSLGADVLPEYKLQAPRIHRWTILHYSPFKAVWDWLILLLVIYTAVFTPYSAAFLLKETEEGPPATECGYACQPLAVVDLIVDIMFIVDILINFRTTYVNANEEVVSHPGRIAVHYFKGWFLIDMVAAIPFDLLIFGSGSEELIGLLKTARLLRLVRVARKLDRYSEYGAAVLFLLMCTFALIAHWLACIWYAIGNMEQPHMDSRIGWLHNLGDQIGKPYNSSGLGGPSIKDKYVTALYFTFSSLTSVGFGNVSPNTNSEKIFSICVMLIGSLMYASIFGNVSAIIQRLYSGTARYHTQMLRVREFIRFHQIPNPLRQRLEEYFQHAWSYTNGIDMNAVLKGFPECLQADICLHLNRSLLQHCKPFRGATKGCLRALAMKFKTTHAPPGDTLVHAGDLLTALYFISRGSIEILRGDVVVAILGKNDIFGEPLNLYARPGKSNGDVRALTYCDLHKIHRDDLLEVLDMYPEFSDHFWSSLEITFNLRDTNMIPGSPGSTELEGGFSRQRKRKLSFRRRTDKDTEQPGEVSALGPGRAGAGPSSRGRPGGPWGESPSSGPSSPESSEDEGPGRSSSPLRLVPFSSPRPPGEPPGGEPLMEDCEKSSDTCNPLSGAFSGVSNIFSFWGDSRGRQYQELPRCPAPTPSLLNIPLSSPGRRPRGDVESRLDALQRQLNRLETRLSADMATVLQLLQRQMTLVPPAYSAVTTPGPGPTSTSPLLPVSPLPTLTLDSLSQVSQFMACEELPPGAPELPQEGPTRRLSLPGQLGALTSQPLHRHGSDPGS

| Structure (SMILES) | hERG current change (%, negative = inhibition) at 1uM [%] |
| --- | --- |
| CC(=O)c1ccc(NC(=O)CSc2ccc(-c3ccc4c(c3)OCO4)nn2)cc1 | 5.75 |
| O=C1OC(CCl)CN1Cc1c(Cl)cccc1Cl (centres unmarked) | 4.61 |
| O=C(NC1CCCC1)C1CCCN(S(=O)(=O)c2ccc(F)cc2)C1 (centres unmarked) | 15.3 |
| FC(F)(F)c1cc(N2CCN(Cc3ccccc3)CC2)c2ccccc2n1 | 11.8 |
| N#C[C@@H]1[C@@H]2C(=O)N(c3ccc4c(c3)OCCO4)C(=O)[C@@H]2C2c3ccccc3C=CN21 (some centres unmarked) | -3.16 |
| Cc1ccc(NC(=O)c2cc(-c3ccc(C)o3)nc3ccccc23)nc1 | 11.8 |
| Cc1ccc(/C=N\NC(=O)COc2ccc(C)cc2[N+](=O)[O-])cc1 | 13.1 |
| CCOC(=O)C1CCN(C(=O)COc2ccc(N(C)S(=O)(=O)c3ccc(OCC)cc3)cc2)CC1 | 11.1 |
| COc1ccc(CNCC2COc3ccccc3O2)cc1.O=C(O)C(=O)O (centres unmarked) | 4.11 |
| CCOC(=O)c1c(NC(=O)C2C3C=CC(C3)C2C(=O)O)sc2c1CCCC2 (centres unmarked) | 8.1 |
| CCCOc1cccc(-c2cc(C(=O)NN)c3ccccc3n2)c1 | 4.13 |
| O=C(CN1C(=O)COc2ccccc2C1=O)c1ccc2c(c1)OCCO2 | 12.5 |
| Oc1ccc(-c2cc(-c3ccc(O)cc3)nc(-c3ccccc3)n2)cc1 | 12.1 |
| COc1ccccc1NC(=O)NC1(C(=O)NCC2CCCO2)CCCCC1 (centres unmarked) | 13.6 |
| CC1(C)CCC(=O)N2CC[C@H]3C[C@H](OC(=O)Nc4ccc(Br)cc4)C[C@@H]1[C@H]32 | 9.77 |
| CCOC(=O)C1CCCCN1C(=O)CCc1c(C)nc2cc(-c3ccccc3)nn2c1C (centres unmarked) | -14 |
| O=C(Nc1cccc(Cl)c1)Nc1cc(S(=O)(=O)N2CCOCC2)ccc1N1CCCC1 | 9.33 |
| NCCCNC(=O)Cn1c(=O)c2c3c(sc2n(Cc2ccccc2)c1=O)CCCC3 | 14.1 |
| Cc1ccc(NC(=O)C2CC(=O)N/C(=N/N=C/c3ccco3)S2)cc1C (centres unmarked) | -2.7 |
| COc1ccc(S(=O)(=O)N2CCN(C(=O)CN3C(=O)NC4(CCCC4)C3=O)CC2)cc1 | 13.9 |
| N/C(=N\OC(=O)c1ccco1)c1ccc(Cl)cc1 | 9.87 |
| COc1cc(C)c(C(=O)Oc2cc(C)c(C(=O)O)c(O)c2C)c(O)c1C | 5.04 |
| COc1ccc(-c2nc(CSCC(=O)N3CCN(C)CC3)c(C)o2)cc1OC | 11.9 |
